The whole screen tested about 150,000 compounds, of which about 540 (0.36%) showed an effect of 50% or more. The list shows a part of the results.

The subject of the test is Plasmodium falciparum. The experiment in a line: Primary screen in NF54 nanoGlo assay, in single point, at 2uM, 72h; a lower Z score goes with more inhibition. The note with it: timepoint 72 hour. Format: functional, Erythrocyte.
Turning to `COc1ccc(C(=O)N(Cc2cc3ccc(C)cc3nc2N2CCN(C(C)=O)CC2)C2CC2)c(OC)c1`, the “% Inhibition” value is -10% and the Z score is 2.06.
For the compound `COCCN1C[C@@H](Cc2cc(N)ncn2)CC1=O`, the “% Inhibition” value is on record as -6% and the Z score came out at 0.73.
Consider `C[C@@H](C(=O)NCC(C)(C)N1CCOCC1)n1cncn1`, for which the “% Inhibition” value stood at 4% and the Z score is recorded as -0.77.
In the case of `O=C(NCc1nccnc1-c1ccncc1)c1cncc(F)c1`, the “% Inhibition” value is 20% and the Z score is -2.51.
For the compound `COc1ccc(N[C@@H](C)c2nc(C3CC3)no2)cn1`, the “% Inhibition” value is given as -1% and the Z score amounted to 0.13.
For `N#Cc1nc2c(S(=O)(=O)c3ccccc3)c(N)n(Cc3ccc(Cl)cc3)c2nc1C#N` the same measures were -16% and 2.57.
With `COc1ccc(CNC(=O)c2coc(COc3ccc4ncccc4c3)n2)cc1`, the “% Inhibition” value amounted to 5% and the Z score is reported as -0.71.
As to `Cc1cc(S(=O)(=O)N[C@H]2CCNC2=O)c(C)s1`, the “% Inhibition” value is recorded as 3% and the Z score is recorded as -0.28.
Turning to `COc1ccc(-c2noc(C[C@H]3CCCCN3C(C)=O)n2)cc1OC`, the “% Inhibition” value was -9% and the Z score was determined as 1.22.
Take `O=C(c1nnn2c1CO[C@H](c1ccccc1)C2)N1CCc2ccccc2C1`: the “% Inhibition” value is listed as -15% and the Z score was 1.75.
With `NS(=O)(=O)c1ccc(CNC(=O)[C@H]2CCCN(Cc3ccco3)C2)cc1`, the “% Inhibition” value turned out to be 3% and the Z score is on record as -0.33.
Consider `CN(Cc1nnsc1Cl)[C@H]1CCN(c2ccccc2)C1=O`, for which the “% Inhibition” value is -11% and the Z score was found to be 1.45.
Take `O=C(Nc1ncccc1O)C1CN(c2cc(-n3cncn3)ncn2)C1`: the “% Inhibition” value was determined as 2% and the Z score is -0.22.
With `CCCn1ncc(C(=O)NCc2nc(C3CCCCC3)no2)c1C`, the “% Inhibition” value is listed as -14% and the Z score amounted to 2.18.
Regarding `COC1Cc2ccccc2N(C(=O)c2ccc(S(=O)(=O)N3CCCCC3C)cc2)C1` (stereo unspecified), the “% Inhibition” value is listed as -12% and the Z score is on record as 1.58.
Regarding `O=C(COC(=O)CCN1C(=O)c2ccccc2C1=O)Nc1ccc(F)c(F)c1`, the “% Inhibition” value is recorded as -6% and the Z score stood at 0.88.
Regarding `CCCCn1ncnc1Cc1ccc(F)c(F)c1F`, the “% Inhibition” value was -10% and the Z score is listed as 1.15.
Consider `Cc1ccc(-c2ncc(C(=O)NCCCN(C)C3CCCC3)c(O)n2)cc1`, for which the “% Inhibition” value is on record as -10% and the Z score was determined as 1.27.
In the case of `CCOc1ccc(-c2cc(CCCC(=O)NCCc3ccc(OC)c(OC)c3)no2)cc1`, the “% Inhibition” value was -6% and the Z score was 1.03.
For `Cc1ccc(CCNC(=O)[C@@H]2CCC(=O)N2CCc2ccccc2)cc1`, the “% Inhibition” value is -6% and the Z score was 0.99.
In the same order, the values of `O=C(CC1CCCCC1)NCC1CCN(c2cc(-c3cccnc3)n[nH]2)CC1` are -17% and 1.71.
As for `Cc1nnsc1C(=O)N[C@H]1CCOC2(CCOCC2)C1`, the “% Inhibition” value is -19% and the Z score stood at 1.71.
For `COC(=O)N1CC[C@H](Nc2ccc(C#N)cc2F)C1` the same measures were 2% and -0.19.
Take `C[C@H]1CN(c2nccc3[nH]ccc23)CCCO1`: the “% Inhibition” value is reported as -5% and the Z score stood at 1.
Turning to `COc1cc2c(C(=O)N3CCCOCC3)c[nH]c2cc1Cl`, the “% Inhibition” value is recorded as -4% and the Z score turned out to be 0.37.
With `COc1ccc(-c2noc(CCN3CCCN(C)CC3)n2)cc1OC`, the “% Inhibition” value is given as 26% and the Z score is recorded as -2.92.
For `CC(C)n1[nH]c(=O)c2c1NC(=O)C[C@@H]2c1ccc(F)c(F)c1F`, the “% Inhibition” value came to 26% and the Z score was -2.93.
`Cc1sc(-c2ccno2)cc1S(=O)(=O)N1CCCCC1`: the “% Inhibition” value was -10% and the Z score came to 1.02.
Take `Cn1ncc2c(NC(C3CC3)C3CC3)ncnc21`: the “% Inhibition” value is listed as -1% and the Z score stood at 0.13.
Turning to `Cn1nc2nc(N3CCCC3)nc(-c3cccc(Oc4ccccc4)c3)c2c1N`, the “% Inhibition” value was -13% and the Z score amounted to 1.68.
Consider `CC(C)c1nc2cc(C(=O)N3CCN(c4cnccn4)CC3)ccc2o1`, for which the “% Inhibition” value is reported as -2% and the Z score was 0.28.
`Cc1cc(C(=O)N[C@H]2CC(=O)N(C(C)C)C2)cc(=O)[nH]1`: the “% Inhibition” value is given as -14% and the Z score is on record as 1.78.
As for `Cc1nc(-c2ncc(C(=O)N3CCC[C@H](C#N)C3)c(O)n2)cs1`, the “% Inhibition” value was -14% and the Z score is listed as 1.37.
On to `CC(C)(C)C1CCC(O)(CNC(=O)C[C@H]2CCS(=O)(=O)C2)CC1` (stereo partly specified), for which the “% Inhibition” value is listed as -15% and the Z score is 2.48.
For `O=C1CCC2(CCN(C(=O)c3ncc[nH]3)CC2)CN1Cc1ccncc1` the same measures were -19% and 2.53.
For `O=C(NCc1cccc2[nH]ccc12)N1CC[C@@H](O)C1` the same measures were 0% and 0.01.
As to `CCc1nc(CN(CCOC)CC(F)(F)F)no1`, the “% Inhibition” value is -11% and the Z score is 1.16.
Consider `C[C@@H](COCc1ccccc1)C(=O)Nc1nnc(C(F)(F)F)[nH]1`, for which the “% Inhibition” value is listed as -16% and the Z score amounted to 3.08.
As to `Cc1nn(C(C)(C)C)cc1C(=O)N1CCOc2ccc(F)cc2C1`, the “% Inhibition” value was determined as 1% and the Z score is listed as -0.19.
For the compound `O=C(NC[C@@H]1C[C@@H]2C=C[C@@H]1C21CC1)c1coc(COc2ccc(F)cc2)n1`, the “% Inhibition” value is reported as -19% and the Z score was determined as 1.77.
For `COCC(=O)N1CC[C@H](Nc2ncc(F)c(OC)n2)[C@@H](O)C1` the same measures were 14% and -2.73.
Consider `COc1cccc(-n2nnc3c(N4CCN(C(=O)C5CCCC5)CC4)ncnc32)c1`, for which the “% Inhibition” value is listed as -8% and the Z score was determined as 1.61.
On to `O=C(c1cc2ccccc2o1)N1CC(Nc2cnccn2)C1`, for which the “% Inhibition” value is recorded as -22% and the Z score was 2.55.

In general, % Inhibition refers to the relative decrease from the control value, in per cent.
